Reference: patent US20220235109A1 (CUGENE, published 2022)

T1: IL-2Rα-ECD (human, UniProt P01589 22-240)
T1 construct: coated on ELISA plates at 0.1 µg/well; also called CD25; receptor subunit α
T1 sequence: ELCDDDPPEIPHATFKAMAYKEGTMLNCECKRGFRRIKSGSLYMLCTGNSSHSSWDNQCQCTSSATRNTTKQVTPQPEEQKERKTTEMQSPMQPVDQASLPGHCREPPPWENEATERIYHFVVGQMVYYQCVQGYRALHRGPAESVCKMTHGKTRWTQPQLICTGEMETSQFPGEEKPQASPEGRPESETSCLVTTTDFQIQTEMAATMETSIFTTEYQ


Molecular target: T1, IL-2Rα-ECD
Assay: ELISA, IL-2Rα-ECD coated
Description: A panel of IL-2 muteins was expressed as C-terminal fusions to the Fc homodimer of Fc heterodimer and screened for binding to IL-2Rα in enzyme-linked immunosorbent assay (ELISA). Briefly, IL-2Rα-ECD (SEQ ID NO: 5) was coated onto the wells of Nunc Maxisorp 96-well microplates at 0.1 μg/well. After overnight incubation at 4° C. and blocking with superblock (Thermo Fisher), 3-fold serial dilutions of IL-2 Fc fusion proteins starting at 100 nM were added to each well at 100 μI/well. Following one-hour incubation at room temperature, 100 μl/well of goat anti-human IgG Fc-HRP (1:5000 diluted in diluent) were added to each well and incubated at room temperature for 1 hour. Wells were thoroughly aspirated and washed three times with PBS/0.05% Tween-20 following each step. Finally, 100 μl TMB substrate was added to each well; the plate was developed at room temperature in the dark for 10 minutes, and 100 μl/well of stop solution (2N Sulfuric acid, Ricca Chemical) was added. Absorbance was determined at 450 nm and curves were fit using Prism software (Graph Pad).

Binder | Binding EC50 vs. P-0531
P-0610 (Fc fusion, Fc homodimer, bivalent IL-2 variant; also called IL-2 Y107H/S125I bivalent Fc fusion) [human IgG1 Fc with L234A L235A G237A (EU numbers) not listed]GGGSGGGSAPTSSSTKKTQLQLEHLLLDLQMILNGINNYKNPKLTRMLTFKVYMPKKATELKHLQCLEEELKPLEEVLNLAQSKNFHLRPRDLISNINVIVLELKGSETTFMCEHADETATIVEFLNRWITFIQSIISTLT | 1.24 fold (ratio of EC50s)
P-0611 (Fc fusion, Fc homodimer, bivalent IL-2 variant; also called IL-2 Y107L/S125I bivalent Fc fusion) [human IgG1 Fc with L234A L235A G237A (EU numbers) not listed]GGGSGGGSAPTSSSTKKTQLQLEHLLLDLQMILNGINNYKNPKLTRMLTFKVYMPKKATELKHLQCLEEELKPLEEVLNLAQSKNFHLRPRDLISNINVIVLELKGSETTFMCELADETATIVEFLNRWITFIQSIISTLT | 1.09 fold (ratio of EC50s)
P-0612 (Fc fusion, Fc homodimer, bivalent IL-2 variant; also called IL-2 Y107V/S125I bivalent Fc fusion) [human IgG1 Fc with L234A L235A G237A (EU numbers) not listed]GGGSGGGSAPTSSSTKKTQLQLEHLLLDLQMILNGINNYKNPKLTRMLTFKVYMPKKATELKHLQCLEEELKPLEEVLNLAQSKNFHLRPRDLISNINVIVLELKGSETTFMCEVADETATIVEFLNRWITFIQSIISTLT | 1 fold (ratio of EC50s)
